# Measured values reported in PubChem BioAssay AID686978 (National Center for Advancing Translational Sciences (NCATS), 2013).
# Several values for one entry are separate records, joined by “and”; a condition that tells them apart may be missing. Identical values can stand only once. About 64,000 (15%) of roughly 420,000 compounds were called active. Inconclusive means that the source gave no clear call. Such entries were picked first, then a sample of the others. Calls come from the whole dose curve; as a rule, active = well fitted inhibition curve with a large enough effect; inconclusive = small, poorly fitted or top-dose-only effect; inactive = flat fitted curve, though single readings scatter. Potencies beside an inconclusive call are fits to weak or partial responses and may not hold up.
# Assay: qHTS for Inhibitors of human tyrosyl-DNA phosphodiesterase 1 (TDP1): qHTS in cells in absence of CPT; note: nearly all actives have a fitted effect of over 55% in size
# Details: DT40 Tdp1-/- hTDP1 cells, no CPT, ATP luminescence, 48 h; activity change, negative = growth inhibition: at 46.2 µM (top of the series) unless noted
# How it was run: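 Seeded 400 DT40-hTDP1 cells/well (vehicle DMSO, no 20 nM CPT); pinned compounds; ≥48 hr at 37 °C; CellTiter-Glo luminescence as viability measure.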
# % is set by controls: 0 for no effect and ±100 for the full control effect; potency is the fitted concentration of half-maximal effect; tags give direction and shape of the fitted curve.
SMILES,Potency,"activity change, negative = growth inhibition"
O=C(c1ccc2c(c1)N(Cc1cccc(F)c1)C(=O)c1ccccc1S2)N1CCCC1,"inconclusive: 20.6 µM [inhibitor, single point]",–
CCNC(=O)/C(C#N)=C/c1c(N2CCN(c3ccccc3)CC2)nc2ccccn2c1=O,"inconclusive: 29.1 µM [inhibitor, single point]",–
COc1cccc(NC(=O)C2CCN(S(=O)(=O)c3ccc4[nH]c(=O)ccc4c3)CC2)c1,–,inactive: -6.81%
CC(C)(C)c1ccc(S(=O)(=O)NCCc2ccncc2)cc1,active: 16.4 µM,–
Cc1ccc(-c2noc(CNC(=O)c3ccoc3C)n2)cc1,–,inactive: -9.26%
CCNC(=O)CCS(=O)(=O)c1ccc2ccccc2c1,–,inactive: 13.2%
CCOC(=O)c1cnn(-c2cc(Oc3cccc(C)c3)ncn2)c1N,"inconclusive: 14.6 µM [inhibitor, partial curve]",–
Cc1cc2oc(=O)cc(CN(Cc3ccccc3)Cc3ccccc3)c2cc1Cl,"inconclusive: 29.1 µM [inhibitor, single point]",–
COc1ccccc1CN1C(=O)c2cccc3cccc(c23)C1=O,"inconclusive: 29.1 µM [inhibitor, single point]",–
CN(C)CCCNC(=S)Nc1ccc(Oc2ccccc2)cc1,"inconclusive: 16.4 µM [inhibitor, single point]",–
CCOc1ccccc1C(=O)NC1(C(F)(F)F)C(=O)Nc2c1c(=O)[nH]c(=O)n2-c1ccc(F)cc1 (stereo unspecified),–,inactive: -13%
COc1ccc(N2CCOCC2)c(NC(=O)c2ccco2)c1,"inconclusive: 8.2 µM [inhibitor, partial curve]",–
Cc1ccc(OCCCCn2ccnc2)c(Cl)c1,"inconclusive: 29.1 µM [inhibitor, single point]",–
COCCn1c(=NC(=O)c2ccc3c(c2)OCCO3)sc2cc(S(N)(=O)=O)ccc21,"inconclusive: 5.17 µM [inhibitor, partial curve]",–
COc1ccc(-c2sc(Nc3ccc(F)c(F)c3F)nc2CCC(=O)NN)cc1,"inconclusive: 29.1 µM [inhibitor, single point]",–
C[C@H](CO)N1C[C@H](C)[C@H](CN(C)S(=O)(=O)c2cn(C)cn2)OCc2cnnn2CCCC1=O,–,inactive: -21.1%
O=C(COC(=O)c1cccc(S(=O)(=O)N2CCCCCC2)c1)Nc1ccccc1,–,inactive: -4.96%
Cc1nc(CN(C)C(=O)c2cc(COc3c(F)cccc3F)on2)cs1,"inconclusive: 23.1 µM [inhibitor, single point]",–
COc1cc2c(cc1OC)C(C)N(C(=O)c1cc3n(n1)C(C(F)(F)F)CC(c1ccco1)N3)CC2 (stereo unspecified),"inconclusive: 16.4 µM [inhibitor, single point]",–
CCc1ccc(NC(=O)c2sc3nc4n(c(=O)c3c2C)CCC4)cc1,–,inactive: -21.9%
O=C(C1CCN(S(=O)(=O)c2cccc3nsnc23)CC1)N1CCn2c1nc1ccccc12,active: 16.4 µM,–
CCCCc1nnc(NC(=O)c2oc3ccccc3c2C)s1,–,inactive: -12.8%
CN1C(=O)CC(c2ccccc2)C1=O (stereo unspecified),"inactive and inconclusive: 15 µM [inhibitor, partial curve, poor fit]",–
Cn1nnnc1SCCNCc1cc(Br)ccc1OCc1ccccc1Cl,active: 16.4 µM,–

SMILES,Potency,"activity change, negative = growth inhibition"
O=C1CC(c2ccco2)CC(O)=C1C=NCCN1CCN(C(=S)Nc2ccccc2)CC1 (stereo unspecified),–,inactive: -10.2%
CCOC(=O)c1[nH]ncc1CN1CCCC(C(=O)c2ccc(OC)cc2C)C1 (stereo unspecified),"inconclusive: 29.1 µM [inhibitor, single point]",–
CCC(C)(C)n1nnnc1CN1CCC(c2nc3ccc(C)cc3[nH]2)CC1,"inconclusive: 35.5 µM [inhibitor, single point]",–
COc1ccccc1N1C(=O)S/C(=C\c2ccc(C)s2)C1=O,"inconclusive: 8.2 µM [inhibitor, partial curve]",–
CCC(CC)C1C(C#N)=C(N)SC(N)=C1C#N,–,inactive: -20.4%
CCOC(=O)C1=C(c2ccccc2)NC(=O)N(C(C)=O)C1c1cccc([N+](=O)[O-])c1 (stereo unspecified),–,inactive: -4.55%
Nc1nc2c(ncn2[C@@H]2O[C@H](CNCc3ccc4ncccc4c3)[C@@H](O)[C@H]2O)c(=O)[nH]1,–,inactive: -3.4%
Cc1cc(SCC(=O)Nc2c(C)n(C)n(-c3ccccc3)c2=O)nc2ccccc12,–,inactive: 10.1%
COC(=O)c1c(-c2cccs2)csc1NC(=O)COc1ccc(C)cc1,"inconclusive: 20.6 µM [inhibitor, single point]",–
Cc1ccc(S(=O)(=O)N(C)CC(=O)OCC(=O)NC(=O)Nc2ccc3c(c2)OCCO3)cc1,"inconclusive: 25.9 µM [inhibitor, partial curve]",–
O=[N+]([O-])c1ccc(-c2nnc(-c3ccccc3)c(N3CCOCC3)n2)cc1,"inconclusive: 25.9 µM [inhibitor, single point]",–
COc1cccc(OC)c1C(=O)NCCc1csc(-c2ccc(Cl)cc2)n1,"inconclusive: 29.1 µM [inhibitor, single point]",–
O=C(O)CNC(=O)CCCn1nnc2ccccc2c1=O,–,inactive: 26.3%
COc1ccccc1/C=C/C=N/NC(=O)c1cc(-c2ccco2)[nH]n1,active: 18.4 µM,–
CCN(C(=O)CN1C(=O)S/C(=C\c2ccc(F)cc2)C1=O)C1CCS(=O)(=O)C1 (stereo unspecified),"inconclusive: 14.6 µM [inhibitor, partial curve]",–
Cc1ccc(C(=O)Nc2cccc3cccnc23)cc1Cl,"inconclusive: 20.6 µM [inhibitor, single point]",–
CC1CCC2C(=O)N(c3ccc(Cc4ccncc4)cc3)C(=O)C2C1 (stereo unspecified),active: 10.3 µM,–
Cc1onc(-c2ccccc2)c1C(=O)NC(=S)NNC(=O)c1ccccc1O,active: 3.26 µM,–
CCOc1ccc(NC(=O)COc2ccc(S(=O)(=O)NC3CCCCC3)cc2)cc1,"inconclusive: 29.1 µM [inhibitor, single point]",–
C=CCC[C@@H](Cc1ccc(F)cc1)C(=O)OC[C@@H](NC(=O)[C@H](CC=C)CC(=O)NCCO)C(C)(C)C,"inconclusive: 29.1 µM [inhibitor, partial curve, poor fit]",–
CCOCCCn1cc(C(=O)c2cc(Br)ccc2O)cc(C#N)c1=O,"inconclusive: 25.9 µM [inhibitor, single point]",–
CC(C)c1ccc(NC(=O)CCNC(=O)Cn2cnc3ccccc3c2=O)cc1,–,inactive: -11.8%
CCOc1ccc(C(=O)NCCN2CCCCC2)c(OCC)c1,–,inactive: -26.7%
CC(=O)Nc1cccc(C(=O)Nc2nc(C)cs2)c1,"inconclusive: 23.1 µM [inhibitor, partial curve]",–

SMILES,Potency,"activity change, negative = growth inhibition"
CCc1ccc2[nH]c(=O)c(CN(Cc3ccccc3OC)C(=O)Nc3ccccc3OC)cc2c1,active: 23.1 µM,–
CCn1ncc(-c2cc(C(=O)O)no2)c1C,"inconclusive: 8.2 µM [inhibitor, partial curve]",–
CSc1cc(C)c(OCC(=O)Nc2c(C)nn(C)c2C)c(C)c1,"inconclusive: 25.9 µM [inhibitor, partial curve, poor fit]",–
COc1ccc2oc(C(=O)Nc3cccc(S(=O)(=O)N4CCOCC4)c3)c(C)c2c1,"inconclusive: 20.6 µM [inhibitor, single point]",–
O=S1(=O)CC(N2CC=CC2)CN1Cc1ccccc1 (stereo unspecified),"inconclusive: 16.4 µM [inhibitor, single point]",–
CCCN(CC(=O)Nc1ccc(F)c(F)c1F)C(=O)c1ccc2c(c1)NC(=O)CS2,"inconclusive: 29.1 µM [inhibitor, single point]",–
Cc1cccc(CN(CC(=O)N/N=C/c2ccco2)S(=O)(=O)c2ccc(Cl)cc2)c1,"inconclusive: 16.4 µM [inhibitor, partial curve, poor fit]",–
Nc1cc(Cl)cc2c1-c1ccc(Cl)cc1C2O (stereo unspecified),"inconclusive: 20.6 µM [inhibitor, single point]",–
Brc1ccsc1-c1csc(-c2ccncc2)n1,"inconclusive: 29.1 µM [inhibitor, single point]",–
CCCn1c(SCC(=O)Nc2cccc(C)n2)nc2c1c(=O)n(C)c(=O)n2C,"inconclusive: 23.1 µM [inhibitor, single point]",–
O=C(N/N=C/C=C/c1ccco1)c1cccs1,"inconclusive: 13 µM [inhibitor, partial curve]",–
O=C(NCC1CCCO1)c1cc(S(=O)(=O)N2CCCC2)c(Cl)cc1Cl (stereo unspecified),–,inactive: -14.5%
O=C1Nc2ccccc2C1Cc1ccc(OC(F)(F)F)cc1 (stereo unspecified),"inconclusive: 0.326 µM [inhibitor, full curve, poor fit]",–
Cc1nnsc1C(=O)N1CCC(C(=O)c2ccccc2)CC1,–,inactive: 1.91%
CCOc1ccc(NC(=O)c2ccc(-n3cccn3)nc2)cc1,–,inactive: -9.56%
COc1cc(-c2nnc(-c3cc(-c4ccccc4)nc4ccccc34)o2)cc(OC)c1OC,"inconclusive: 3.66 µM [inhibitor, full curve]",–
CC(C)c1cc(CN2CCN(CCC#N)CC2)cc(C(C)C)c1O,–,inactive: -0.887%
O=C(NC1CCCCCC1)c1ccc(CS(=O)Cc2cccc(Cl)c2)o1 (stereo unspecified),"inconclusive: 20.6 µM [inhibitor, single point]",–
C=CCN(C(=O)Nc1ccccc1)C1CC(=O)N(c2ccc(OC)cc2)C1=O (stereo unspecified),–,inactive: -15%
C=CCc1ccc(OCc2ccc(C(=O)OC)o2)c(OC)c1,–,inactive: -21.8%
CCCOc1ccc(-c2nc(SCC(=O)c3ccc(Cl)cc3)n[nH]2)cc1,–,inactive: -22.2%
COc1cc(C)c(C(=O)Oc2cc(C)c(C(=O)O)c(O)c2C)c(O)c1C,"inconclusive: 29.1 µM [inhibitor, single point]",–
Cn1c(=O)c2sccc2n2c(CCC(=O)NCc3ccc(Cl)cc3)nnc12,"inconclusive: 23.1 µM [inhibitor, single point]",–
